No constants are given. Whether binding was seen depends on the method and setting. In cells and extracts the contact can be indirect. Some binding calls cover weakened binding; strength is not graded here. For part of these data: Tags and fused reporters may be left off the sequences shown. Each block holds one molecule with its values, some of them ahead of it.
How the values were obtained:
[1] = target: T1, endogenous NKX2.1 of primary rat alveolar epithelial cells (rat (endogenous in primary rat AEC)) (UniProt P23441); assay: co-IP; nuclear extracts (200 ug) of primary rat AEC on day 3 in culture; anti-NKX2.1 monoclonal or rabbit polyclonal anti-FOXO1 antibody or IgG control, overnight at 4 C in IP Low Wash Buffer, Protein A/G beads; blot for FOXO1 or NKX2.1
T1 sequence: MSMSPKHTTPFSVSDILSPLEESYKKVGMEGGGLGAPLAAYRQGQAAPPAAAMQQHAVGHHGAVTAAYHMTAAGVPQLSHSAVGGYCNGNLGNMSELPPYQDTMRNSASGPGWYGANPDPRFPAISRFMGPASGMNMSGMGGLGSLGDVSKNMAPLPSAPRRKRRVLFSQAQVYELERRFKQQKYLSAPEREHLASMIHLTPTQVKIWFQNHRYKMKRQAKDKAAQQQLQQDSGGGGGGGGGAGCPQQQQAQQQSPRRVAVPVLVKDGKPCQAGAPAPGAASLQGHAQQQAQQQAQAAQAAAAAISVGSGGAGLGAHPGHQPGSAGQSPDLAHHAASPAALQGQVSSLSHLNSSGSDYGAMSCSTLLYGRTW

Sequences of proteins named here, by UniProt entry; tags and fusion partners are left off.
UniProt G3V7R4: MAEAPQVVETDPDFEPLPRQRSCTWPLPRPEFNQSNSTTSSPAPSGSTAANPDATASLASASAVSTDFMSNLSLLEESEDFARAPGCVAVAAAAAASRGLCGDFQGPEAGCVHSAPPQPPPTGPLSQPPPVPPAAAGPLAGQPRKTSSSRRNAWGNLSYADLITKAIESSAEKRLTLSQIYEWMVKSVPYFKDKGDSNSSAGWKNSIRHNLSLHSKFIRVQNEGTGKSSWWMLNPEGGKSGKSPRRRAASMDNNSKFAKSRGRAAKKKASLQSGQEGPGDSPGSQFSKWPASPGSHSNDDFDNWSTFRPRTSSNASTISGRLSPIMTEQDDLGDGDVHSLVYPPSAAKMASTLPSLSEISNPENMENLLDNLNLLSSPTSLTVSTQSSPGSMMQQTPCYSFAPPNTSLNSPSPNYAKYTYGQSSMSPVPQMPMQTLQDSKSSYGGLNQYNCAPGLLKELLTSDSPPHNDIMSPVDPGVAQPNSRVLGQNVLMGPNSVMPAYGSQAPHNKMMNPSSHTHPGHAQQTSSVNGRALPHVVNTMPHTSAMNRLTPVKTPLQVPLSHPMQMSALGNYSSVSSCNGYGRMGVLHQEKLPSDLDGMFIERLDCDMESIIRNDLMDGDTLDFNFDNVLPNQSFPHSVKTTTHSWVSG

GST-NKX2.1-C = target: T2, GST-NKX2.1-C (UniProt P43699); assay: pull-down; GST-NKX2.1 fusion proteins (full-length and domains) on glutathione-sepharose; in vitro translated FOXO1; binding buffer; blot with anti-FOXO1; only the target purified
T2 sequence: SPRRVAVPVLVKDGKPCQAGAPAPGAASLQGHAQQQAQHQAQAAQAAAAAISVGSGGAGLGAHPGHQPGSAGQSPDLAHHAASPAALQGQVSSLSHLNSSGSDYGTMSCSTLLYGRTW

GST-NKX2.1-HD = target: T3, GST-NKX2.1-HD (UniProt P43699); assay: as above
T3 sequence: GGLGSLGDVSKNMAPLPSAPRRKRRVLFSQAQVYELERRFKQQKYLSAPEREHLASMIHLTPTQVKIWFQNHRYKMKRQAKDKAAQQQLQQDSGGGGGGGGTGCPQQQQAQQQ

GST-FOXO1-FK = GST-FOXO1-FK (UniProt Q12778); assay: pull-down; GST-FOXO1 fusion proteins (full-length and domains) or GST on glutathione-sepharose; in vitro translated NKX2.1; 50 mM Tris-HCl, 120 mM NaCl, 2 mM EDTA, 0.1% NP-40, 1 h at RT; blot with anti-NKX2.1; only the target purified
GST-FOXO1-N = target: T4, GST-FOXO1-N (UniProt Q12778); assay: as above
T4 sequence: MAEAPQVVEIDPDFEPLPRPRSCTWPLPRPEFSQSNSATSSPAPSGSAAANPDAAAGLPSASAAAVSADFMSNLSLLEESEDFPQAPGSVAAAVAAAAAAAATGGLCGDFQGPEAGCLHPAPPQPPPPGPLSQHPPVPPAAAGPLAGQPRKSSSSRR

GST-FOXO1-C (human) = GST-FOXO1-C (human) (UniProt Q12778); assay: as above
[2] = target: GST-FOXO1 full-length (FL) (UniProt Q12778); assay: as above
GST-FOXO1-N + FK = GST-FOXO1-N + FK (UniProt Q12778); assay: as above
GST-FOXO1-M = GST-FOXO1-M (UniProt Q12778); assay: as above

- binding [1]: binds
Molecule: endogenous FOXO1 of primary rat alveolar epithelial cells (from UniProt G3V7R4 1-649)

- binding (GST-NKX2.1-C): no binding
- binding (GST-NKX2.1-HD): binds
Molecule: in vitro translated full-length FOXO1 (from UniProt Q12778 1-655)

- binding (GST-FOXO1-FK): binds
- binding (GST-FOXO1-N): no binding
- binding (GST-FOXO1-C (human)): no binding
- binding [2]: binds
- binding (GST-FOXO1-N + FK): binds
- binding (GST-FOXO1-M): no binding
B1: in vitro translated full-length NKX2.1 (protein, UniProt P43699 1-371)
chain: MSMSPKHTTPFSVSDILSPLEESYKKVGMEGGGLGAPLAAYRQGQAAPPTAAMQQHAVGHHGAVTAAYHMTAAGVPQLSHSAVGGYCNGNLGNMSELPPYQDTMRNSASGPGWYGANPDPRFPAISRFMGPASGMNMSGMGGLGSLGDVSKNMAPLPSAPRRKRRVLFSQAQVYELERRFKQQKYLSAPEREHLASMIHLTPTQVKIWFQNHRYKMKRQAKDKAAQQQLQQDSGGGGGGGGTGCPQQQQAQQQSPRRVAVPVLVKDGKPCQAGAPAPGAASLQGHAQQQAQHQAQAAQAAAAAISVGSGGAGLGAHPGHQPGSAGQSPDLAHHAASPAALQGQVSSLSHLNSSGSDYGTMSCSTLLYGRTW

— PMC8997990
